The other results are listed elsewhere or left out. Cut-off read from the data, not from the text of the source: active = 25% or less and inactive = the rest. Most values come without repeats; read them as rough.
How the values were obtained:
[1] = tested on: Salmonella enterica serovar Typhimurium SL1344; assay: bacterial growth OD600 after 18 h in MHB with 0.5 µg/mL polymyxin B; higher = more bacterial growth (less inhibition); conditions: 25 µM; polymyxin B 0.5 µg/mL; system: broth
Description: (§1)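 Secondary screen of the 553 primary hits at 25 µM. (i) S. Typhimurium SL1344 grown in Mueller-Hinton broth with 0.5 µg/mL polymyxin B, OD600 read after 18 h. (ii) SAFIRE assay: RAW 264.7 macrophages infected with S. Typhimurium sifB::gfp (MOI 30); compound added 2 h post-infection; cells fixed at 18 h; GFP-positive pixel fraction per macrophage imaged by confocal microscopy and expressed as % of DMSO control.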

[2] = tested on: Salmonella enterica serovar Typhimurium SL1344; assay: intramacrophage bacterial GFP load (SAFIRE), percent of DMSO control (% of DMSO); higher = more intracellular bacteria (less inhibition); conditions: 25 µM; system: infected RAW 264.7 macrophages
Description: as §1
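Throughout, for bacterial growth OD600 after 18 h in MHB with 0.5 µg/mL polymyxin B: polymyxin B level opens the outer membrane while sparing the inner membrane, with novobiocin wells as reference growth inhibitor.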
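Throughout, for intramacrophage bacterial GFP load (SAFIRE), percent of DMSO control: compounds tested were the hits of an earlier 50 µM broth growth screen of a drug-like diversity library run with polymyxin B.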

SMILES | bacterial growth OD600 [1] | intramacrophage bacterial GFP load [2]
COc1ccc(-c2nn(-c3ccccc3F)cc2CN(C)C(C)c2nccs2)cc1 (stereo unspecified) | 0.017 | inactive: 83.8
COCCN1C(=O)CC(CC(=O)N2CCC(c3ccccc3F)C2)(c2ccccc2OC)C1=O (stereo unspecified) | 0.338 | inactive: 94.5
CN(C(=O)CC1(c2ccc(-c3ccccc3)cc2)CC(=O)N(C2CC2)C1=O)C1CCOCC1 (stereo unspecified) | 0.003 | inactive: 101
COc1ccc2cc(CN(Cc3ccco3)C(=O)CCn3ccc(C)n3)c(N3CCCCCC3)nc2c1 | 0 | inactive: 93.4
CN(Cc1ccccc1Cl)C(=O)c1coc(COc2cccc(F)c2)n1 | 0.002 | inactive: 27.7
Cc1ccccc1CC1(CO)CCCN(Cc2ccccc2C(F)(F)F)C1 (stereo unspecified) | 0.001 | inactive: 72
CC(C)S(=O)(=O)c1ncc(CN(C)Cc2cccs2)n1Cc1ccccc1F | -0.01 | inactive: 110
CC(=O)N1CCN(C(=O)CC(c2ccccc2)c2cccc(Cl)c2)CC1 (stereo unspecified) | 0.639 | inactive: 83.3
CO[C@H]1[C@H](NC(=O)c2ccccn2)c2ccccc2C12CCN(C(=O)C#Cc1ccccc1)CC2 | 0.001 | inactive: 133
COc1ccccc1C(=O)N[C@@H]1c2ccccc2C2(CCN(C(=O)CC3CCCC3)CC2)[C@H]1OC | -0.006 | inactive: 68.4
CC1CCN(C(=O)CC2(c3ccc(-c4ccccc4)cc3)CC(=O)N(C)C2=O)CC1 (stereo unspecified) | 0.001 | inactive: 124
COc1ccc(/C=C/C(=O)N(Cc2ccncc2)Cc2cccc(OCCc3ccc(F)cc3)c2)cc1 | 0.003 | inactive: 56.3
Cc1cc(C)n(CCC(=O)N(Cc2ccncc2)Cc2cccc(OCCc3ccc(F)cc3)c2)n1 | 0.001 | inactive: 54.8
O=C(Nc1ccc(-c2ccco2)cc1)C1CCCN(Cc2cccc3nonc23)C1 (stereo unspecified) | 0.429 | inactive: 118
CCCc1ccc2oc(C(=O)N3CCC(OCc4ccccn4)CC3)c(C)c2c1 | 0 | inactive: 48.6
CCCCN(C)C(=O)c1nc2ccccn2c1CNCc1c(OC)ccc2ccccc12 | 0.005 | active: 5.78
COCC1CCN(c2ccc(-c3nc(COc4ccccc4)no3)cn2)C1 (stereo unspecified) | 0.592 | inactive: 161
COc1ccc2c(C)nc(N3CCCC(C(=O)N4CCC(C(O)c5ccccc5)CC4)C3)nc2c1 (stereo unspecified) | -0.004 | inactive: 93.8
O=C(c1ccc(N2CCOCC2)cc1)N(Cc1ccncc1)Cc1cccc(OCCc2ccc(F)cc2)c1 | -0.008 | inactive: 71.7
Cc1ccnn1CC(=O)N(Cc1ccncc1)Cc1cccc(OCCc2ccc(F)cc2)c1 | 0 | inactive: 58.7
COC(=O)c1sccc1S(=O)(=O)N1CCCC(C(=O)c2cccc(Cl)c2)C1 (stereo unspecified) | 0.003 | inactive: 65.8
COc1ccccc1C(=O)C1CCCN(C(=O)CCc2nc3ccccc3s2)C1 (stereo unspecified) | -0.008 | inactive: 166
Cc1nc(N2CCCCCCC2)ncc1C(C)NCc1ccsc1 (stereo unspecified) | 0.002 | active: 2.15
CCN(CC)c1ccc(C(=O)N2CCCCC2CCn2cccn2)cn1 (stereo unspecified) | 0.668 | inactive: 200
CCCCN(Cc1ccccc1)C(=O)CCC1(Cc2ccc(SC)cc2)CCC(=O)N1 (stereo unspecified) | 0.003 | inactive: 85.2
Cc1ccc(-c2n[nH]cc2CN2CCN(c3ccc(Cl)cn3)CC2)cc1C | 0.001 | active: 6.58
COc1ccc(CCNC(=O)c2oc3ccc(C)cc3c2C)cc1OC | 0.42 | inactive: 138
CC(c1ccon1)N(C)C(=O)CC1(c2ccccc2)CC(=O)N(Cc2ccc3c(c2)OCO3)C1=O (stereo unspecified) | 0.446 | inactive: 156

— the supplement of paper PMC12889115
